This is one part of the list. Most values come without repeats; read them as rough.
Each compound was assayed on LOXIMVI (assay: cell count relative to DMSO control; melanoma cells; higher = more viable cells). Conditions: library dose: low library concentration; 72 h.
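Also: cell number obtained by counting DAPI-stained nuclei in high-throughput microscope images with image analysis software, screen run in 1,536-well plates.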

Q: With `NC(=O)c1ccc(N(C(N)=O)c2c(F)cccc2F)nc1-c1ccc(F)cc1F` + O=C(O)c1ccc(-c2c[nH]c3ncc(-c4ccccc4)cc23)cc1C1CCCC1 [GSK650394] (first compound 0.4 µM, partner dose 0.16 µM) as the compound, how does the cell count read?
A: 162%

Q: How did the cell count turn out when `CCCCCCCCc1ccc(CCC(N)(CO)CO)cc1` [fingolimod] + COc1cc(Nc2ncc(F)c(Nc3ccc4c(n3)NC(=O)C(C)(C)O4)n2)cc(OC)c1OC [Tamatinib] (first compound 2 µM, partner dose 0.4 µM) was run?
A: 100%

Q: Which cell count does the source give for `CC(C)(C)c1cnc(CSc2cnc(NC(=O)C3CCNCC3)s2)o1` + O=C(Nc1cccc(Cl)c1)Nc1ncc(CCNc2ncnc3ccsc23)s1 [SNS314] (first compound 0.01 µM, partner dose 0.0008 µM) here?
A: 75.5%

Q: For `Cc1ccc(NC(=O)c2cccc(N(C)C)c2)cc1NC(=O)c1ccc(O)cc1` + COc1cc2c(Oc3ccc4[nH]c(C)cc4c3F)ncnc2cc1OCCCN1CCCC1 [cediranib] (first compound 2 µM, partner dose 0.4 µM), which cell count is on record?
A: 139%

Q: How did the cell count turn out when `NC(=O)c1ccc(N(C(N)=O)c2c(F)cccc2F)nc1-c1ccc(F)cc1F` + C[C@@H]1CCN(C(=O)CC#N)C[C@@H]1N(C)c1ncnc2[nH]ccc12 [CP690550] (first compound 0.4 µM, partner dose 1 µM) was run?
A: 130%

Q: For `NC(=O)c1ccc(N(C(N)=O)c2c(F)cccc2F)nc1-c1ccc(F)cc1F` + CC(C)(C)c1cnc(CSc2cnc(NC(=O)C3CCNCC3)s2)o1 [SNS-032] (first compound 0.4 µM, partner dose 0.01 µM), which cell count is on record?
A: 108%
